# In PMC4336329 (PLoS ONE, 2015):
# Among all 310,000 compounds or so, about 14,000 (4.5%) showed an effect of 50% or more. The effect is printed as a negative number. The list shows a part of the results.
# Target: human ether-à-go-go-related gene (hERG) potassium channel (human, UniProt Q12809)
# Assay: primary screen, population patch clamp on CHO cells stably expressing hERG
# 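Also: peak tail current of the secondary pulse compared with the same well before compound.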
# Chain of human ether-à-go-go-related gene (hERG) potassium channel (Q12809 whole entry, looked up): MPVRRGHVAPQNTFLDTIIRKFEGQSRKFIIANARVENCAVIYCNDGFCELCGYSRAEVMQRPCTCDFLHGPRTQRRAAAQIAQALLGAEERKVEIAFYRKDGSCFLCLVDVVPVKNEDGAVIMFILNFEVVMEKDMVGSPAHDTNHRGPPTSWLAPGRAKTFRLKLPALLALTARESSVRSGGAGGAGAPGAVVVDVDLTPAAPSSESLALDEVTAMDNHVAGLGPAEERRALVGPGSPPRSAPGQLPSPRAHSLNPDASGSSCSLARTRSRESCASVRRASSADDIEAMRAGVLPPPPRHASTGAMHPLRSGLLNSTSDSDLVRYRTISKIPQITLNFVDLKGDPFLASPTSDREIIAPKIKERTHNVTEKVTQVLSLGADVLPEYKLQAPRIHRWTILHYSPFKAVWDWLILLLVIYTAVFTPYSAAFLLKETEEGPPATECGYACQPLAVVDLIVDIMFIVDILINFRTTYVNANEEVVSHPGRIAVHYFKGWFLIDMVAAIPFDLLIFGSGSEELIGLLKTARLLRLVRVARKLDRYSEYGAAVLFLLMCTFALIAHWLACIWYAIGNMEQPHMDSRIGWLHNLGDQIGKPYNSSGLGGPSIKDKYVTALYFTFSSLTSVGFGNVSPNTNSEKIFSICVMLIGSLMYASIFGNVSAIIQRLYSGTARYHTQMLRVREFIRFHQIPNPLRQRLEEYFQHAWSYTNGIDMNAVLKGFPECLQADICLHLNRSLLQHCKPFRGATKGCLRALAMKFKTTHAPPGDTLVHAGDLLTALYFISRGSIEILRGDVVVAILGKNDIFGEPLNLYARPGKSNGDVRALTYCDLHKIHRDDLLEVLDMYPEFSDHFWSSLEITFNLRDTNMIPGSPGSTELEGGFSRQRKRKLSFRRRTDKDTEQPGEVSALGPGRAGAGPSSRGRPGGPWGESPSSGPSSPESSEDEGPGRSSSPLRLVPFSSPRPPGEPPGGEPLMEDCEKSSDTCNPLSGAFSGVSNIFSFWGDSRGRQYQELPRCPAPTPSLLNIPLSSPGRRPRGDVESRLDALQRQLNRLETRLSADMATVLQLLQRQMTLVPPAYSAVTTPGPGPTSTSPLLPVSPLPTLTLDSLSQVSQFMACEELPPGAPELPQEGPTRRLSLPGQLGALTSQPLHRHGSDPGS
row,Compound,"hERG current change (%, negative = inhibition) at 10uM [%]"
1,COc1cc(NC(=O)c2ccco2)c(OC)cc1NC(=O)c1cc(OC)c(OC)c(OC)c1,8.6
2,O=C(NN=C(Cc1ccccc1)Cc1ccccc1)c1ccncc1,-20.4
3,Cc1ccc(Cn2nc(C)c(C(=O)NCC(c3ccc(F)cc3)N3CCOCC3)c2Cl)cc1 (centres unmarked),-16.7
4,NCCCC[C@@H]1NC(=O)c2cc([N+](=O)[O-])cc(I)c2SC[C@@H](C(N)=O)NC(=O)[C@H](CCC(N)=O)NC1=O,15.1
5,CC1CCCCN1C(=O)CSc1nc(N)cc(=O)[nH]1 (centres unmarked),16.9
6,NS(=O)(=O)c1cccc(NC(=O)CSc2n[nH]c(-c3cccs3)n2)c1,1.96
7,CN(C)C=O.N#Cc1ccccc1OCC(=O)OCC(=O)c1ccc2c(c1)NC(=O)CO2,0.877
8,Cc1ccc(NC(=O)CN2CCCC2)cc1.Cl,19.1
9,CC(C)(O)C#Cc1ccc(CN2CCCC(CO)(Cc3cccc(Cl)c3)C2)cc1 (centres unmarked),-6.28
10,CCOC(=O)Cc1nn(Cc2nc(-c3ccc(C#N)cc3)cs2)c(=O)c2ccccc12,-39.9
11,O=C(c1cccc([N+](=O)[O-])c1)N1CCN(Cc2ccc3c(c2)OCO3)CC1,-44.3
12,O=C(CN1CCCc2ccccc21)NC(=O)NCc1ccccc1,8.1
13,Clc1ccc(-n2nnc(-c3cccnc3)n2)cc1Cl,-30.7
14,O=C1CC(c2ccccc2Oc2cccc(Cl)c2)C(n2cncn2)C(=O)C1C1NCCc2ccccc21 (centres unmarked),-4.4
15,Nc1ccc(Oc2ccc3nc(-c4ccccc4)c(-c4ccccc4)nc3c2)cc1,-3.09
16,Cc1ccc2nc(NC(=O)C3CCCN(S(=O)(=O)c4cccc5nsnc45)C3)sc2c1 (centres unmarked),6.75
17,O=C1CCCC/C1=C/Nc1ccc(S(=O)(=O)Nc2ncccn2)cc1,4.04
18,CCOC(=O)C1=C(C)NC2=C(C(=O)CC(C)(C)C2)C1c1ccsc1 (centres unmarked),4.62
19,COc1ccc(C(=O)NCCNC(=O)c2ccccn2)cc1,18.7

row,Compound,"hERG current change (%, negative = inhibition) at 10uM [%]"
1,CC[C@@H](Nc1ncnc2c1oc1ccccc12)C(=O)O,13.1
2,CC1(C)NC(=O)N(CC(=O)NNC(=O)c2ccccc2F)C1=O,3.42
3,COc1cc(Cl)c(S(=O)(=O)n2cnc(C)c2)cc1Cl,2.25
4,Cc1csc(NC(=O)c2ccc3ccccc3n2)n1,2.75
5,CCOC(=O)/C(C#N)=C/c1cn(CCOc2ccccc2)c2ccccc12,8.07
6,CN1CCN(C(=O)c2cc3sc4ccccc4c3s2)CC1,-15.5
7,O=C(COC(=O)CCCOc1ccc(Cl)cc1Cl)NCc1ccc(F)cc1,8.59
8,O=C(Nc1sc2c(c1C(=O)O)CCCCC2)c1cccs1,56.2
9,COC(=O)Cc1ccc(NC(=O)c2ccccc2Br)cc1,0.8
10,O=C(CN1C(=O)CC(c2ccco2)Sc2ccccc21)Nc1ccccc1F (centres unmarked),-39.3
11,O=C(c1ccc2c(c1)OCO2)C1CCCN(Cc2ccccn2)C1 (centres unmarked),-30.9
12,O=S(=O)(c1ccc(F)cc1)N1CCC2(CC1)OCCO2,12.5
13,COc1cccc(NC(=O)CCC(=O)NCc2ccco2)c1,17.2
14,O=C(CCSCc1ccccc1F)NCc1cccnc1,-1.23
15,COc1ccc(S(=O)(=O)CCC(=O)N2CCN(c3ccc(C(C)=O)cc3)CC2)cc1,-45.9
16,COc1cccc(NC(=O)CSc2nc3c(c(-c4ccco4)c2C#N)CCCC3)c1,0.523
17,Cc1cc(S(=O)(=O)N2CCC3(CC2)OCCO3)c(C)cc1Cl,-9.71
18,Cc1cc(NC(c2cccnc2)c2ccc3cccnc3c2O)no1 (centres unmarked),-12.4
19,CN(C)CCN(C(=O)c1ccc(N2C(=O)CCC2=O)cc1)c1nc2cc3c(cc2s1)OCCO3.Cl,-2.22

row,Compound,"hERG current change (%, negative = inhibition) at 10uM [%]"
1,Nc1c(C(=O)NCc2ccco2)sc2nc(N3CCOCC3)c3c(c12)CCCC3,-4.59
2,CC(=O)c1cccc(NC(=O)c2cc(-c3ccc(F)cc3)on2)c1,6.26
3,O=C(O)c1cccc(Oc2ccccc2[N+](=O)[O-])c1,19.4
4,CCOc1ccc(C(=O)NCC(=O)NCC(c2ccccc2OC)N2CCCC2)cc1 (centres unmarked),-13.3
5,Brc1cccc(-c2nnc(-c3ccccc3)o2)c1,5
6,Cc1ccccc1-c1nc(Cc2ccccc2)no1,11.8
7,O=C(C1CC1)N1CCc2cc(S(=O)(=O)NCCC3=CCCCC3)ccc21,-12.4
8,COc1ccc(C(C)=O)cc1CN(C)C.Cl,17.1
9,Cc1ccc(-c2cc(C(=O)N3CCN(c4ccc(F)cc4)CC3)c3ccccc3n2)o1,-35.7
10,CCN(CC)S(=O)(=O)c1ccc(-c2cn3cc(Cl)ccc3n2)cc1,2.07
11,CSc1ccc(CN(C)C(=O)C(Cc2ccccc2)NC(=O)c2ccccc2)cc1 (centres unmarked),2.45
12,O=C(COC(=O)CCc1nc2ccccc2s1)Nc1nc(-c2ccccc2)cs1,-0.417
13,Cc1nc(-n2nnc3cc(C)c(C)cc32)c2c3c(sc2n1)CCCC3,-1.48
14,CC(=O)N(C)c1ccc(C(O)(C(F)(F)F)C(F)(F)F)cc1,14.1
15,COc1ccc(CNC(=O)C2CCN(c3cc(C(=O)Nc4cccc(OC)c4)ccn3)CC2)cc1,-46
16,Brc1cc2c(cc1Br)OCCOCCOCCOCCO2,-76.5
17,Oc1ccccc1C=NC1CCCCC1N=Cc1ccccc1O (centres unmarked),16.8
18,O=Cc1cccn1Cc1ccc(Cl)cc1Cl,-27.8
